Sequences and labels used below:
B1: LINE1-mini (parent)
chain: GGCAGAGCUCAACACAGCGUGGCAAAGUGGCUGUGGCUAGACUGCC

Data on 56 variants can be found in the RNAGym collection of RNA variant scans (doi:10.7554/elife.90254).

The source gives no read counts; variants with many changes may rest on few reads.

The variants in this data set derive from B1. As to the kind of experiment: self-cleavage, relative activity (ratio to wild type); higher = more cleavage; in vitro, sequencing; the parent is a self-cleaving ribozyme.
Turning to GGCAGAGCUCAAUACAGCGAGGCAAUAUGGCUUUGGCUAGACUGUC [C13U U20A A26U G27A G33U C45U], the self-cleavage is 0.01.
With GGCAGAGCUCAAUACAGCGGGCCAAAGUGGCUGUGGCAAGACUGCC [C13U U20G G22C U38A], the self-cleavage was 0.07.
For GGCAGAGCUCAAUACAGCGUGGCAAAGUGGCUGUGGCUAUACUACC [C13U G40U G44A] the value was 0.15; for GGCAGAGCUCAAUACAGCGGGGUAAAGUGGCUGUGGCUAGACAGCC [C13U U20G C23U U43A], 0.01; for GGCAGAGCUCAAUACAGCGUUGCAAAGUGGCUGUGGCUAGACUGCU [C13U G21U C46U], 0.03.
For GGCAGAGCUCAAUACAGCGCGGCAAAGUGGCUGUGGCUAAACUGCC [C13U U20C G40A] the value was 0.04.
Under GGCAGAGCUCAAUACAGCGUUGCAAAGUGGCUGAGGCUAGCCUGCC [C13U G21U U34A A41C] stands 0.03; under GGCAGAGCUCAAUACAGCGUGGCAAAGUAGCUGUGGCUAGACAGCC [C13U G29A U43A], 0.06.
On to GGCAGAGCUCAAUACAGCGUGGCAAAGUCGCUGGUGCUAGACUGCC [C13U G29C U34G G35U], for which the self-cleavage was determined as 0.04.
For GGCAGAGCUCAAUACAGCGUGGCAAAGUGCCUGUGACUAGACUGCC [C13U G30C G36A] the value was 0.09; for GGCAGAGCUCAAUACAGCGUUGCAAGGUGGCUGUGGCUAGACUGCC [C13U G21U A26G], 0.03.
For GGCAGAGCUCAAUACAGCGUGACAAAGUGGCUGGGCCUAGACUGCC [C13U G22A U34G G36C], the self-cleavage was found to be 0.09.
For GGCAGAGCUCAAUACAGCGUGUCAAAGUGGCUGUGUCUAGACUGCC [C13U G22U G36U] the value was 0.14; for GGCAGAGCUCAAUACAGCGUGACAAAGUGGCAGUGGCUAGACUGCC [C13U G22A U32A], 0.09.
Under GGCAGAGCUCAAUACAGCGUGGCAAAAUGGCUAUGGCUAGACUGCC [C13U G27A G33A] stands 0.12; under GGCAGAGCUCAAUACAGCGUGGCAAAAGGGCUGUGGCUAGACUGCC [C13U G27A U28G], 0.08; under GGCAGAGCUCAAUACAGCGUGGCAAACUGGCUGUGUCUAGGCUGCC [C13U G27C G36U A41G], 0.05.
Turning to GGCAGAGCUCAAUACAGCGUGUCAAAGUGGCUGUGGCUAGACUGAC [C13U G22U C45A], the self-cleavage was 0.06.
With GGCAGAGCUCAAUACAGCGUGUCAAAGUGGCUGUGGCUAGACUGGC [C13U G22U C45G], the self-cleavage came to 1.4.
For GGCAGAGCUCAAUACAGCGAGACAAAGUGGCUGUGGCUAGACUGCC [C13U U20A G22A] the value was 0.11; for GGCAGAGCUCAAUACAGCGUGGCAAAGUAGCUGUGGCUAGUCUGCC [C13U G29A A41U], 0.12.
Under GGCAGAGCUCAAUACAGCGGGGCAAAGUGGGUGUGGCUAGACUUCA [C13U U20G C31G G44U C46A] stands 0.01.
For GGCAGAGCUCAAUACAGCGUUGCAAAGUGGCUGUGGCUAGUCUGCC [C13U G21U A41U] the value was 0.2; for GGCAGAGCUCAAUACAGCGUGCCAAAGUGGAUGUGGCUAGACUGCC [C13U G22C C31A], 0.03.
For the variant GGCAGAGCUCAAUACAGCGUGGCAAAGUCGCUUUGGCUAGACUGCC [C13U G29C G33U], the self-cleavage stood at 0.08.
For GGCAGAGCUCAAUACAGCGUGGCAAAGUGGCUGUAGCUAGACUGUU [C13U G35A C45U C46U] the value was 1.24.
For GGCAGAGCUCAAUACAGCGUGGCAAAGUCGCUGUGGCGAGACCGCC [C13U G29C U38G U43C] the value was 0; for GGCAGAGCUCAAUACAGCGUUGCAAAGUUGCUGUGGCUAGAUUGCG [C13U G21U G29U C42U C46G], 0.04; for GGCAGAGCUCAAUACAGCGUGGCAAACUGGCUGUGGCUAGACUACC [C13U G27C G44A], 0.1.
For GGCAGAGCUCAAUACAGCGUGGCAAAGUUGCUGUGGCUGAACUGCC [C13U G29U A39G G40A] the value was 0.07; for GGCAGAGCUCAAUACAGCGUGGCAAAGUGGCUGUGGCUAAACUGGC [C13U G40A C45G], 0.01; for GGCAGAGCUCAAUACAGCGUGGCAAAGUGCCUGUGGCUAGAAUGCC [C13U G30C C42A], 0.07.
Regarding GGCAGAGCUCAAUACAGCGUGGCAAAGUGGCUCUGCCUAGACUGUC [C13U G33C G36C C45U], the self-cleavage was 0.03.
Under GGCAGAGCUCAAUACAGCGUGGCAAAGUUGCUGUGAGUAGACUGCC [C13U G29U G36A C37G] stands 0.03; under GGCAGAGCUCAAUACAGCGUGGCAAAAUGGCUGUUGCUAGACUGCC [C13U G27A G35U], 0.04.
For GGCAGAGCUCAAUACAGCGAGGCAAAGUGGCUGUGCCUAGACUGCC [C13U U20A G36C] the value was 0.07; for GGCAGAGCUCAAUACAGCGUGUCAAACUGGCUGUGGCUAGACUGCC [C13U G22U G27C], 0.14; for GGCAGAGCUCAAUACAGCGUGGCAAAGUGGCUGUCGUUAGACUUCC [C13U G35C C37U G44U], 0.04.
Under GGCAGAGCUCAAUACAGCGUGGCAAAGUGACUGUGGCUAGACUGAC [C13U G30A C45A] stands 0.14; under GGCAGAGCUCAAUACAGCGUGGCAAAGAGGCUGUAGCUGGACUGCC [C13U U28A G35A A39G], 0.16.
In the case of GGCAGAGCUCAAUACAGCGUGCCAAAGUGGCUGUGGCUAGUCUGCC [C13U G22C A41U], the self-cleavage turned out to be 0.09.
Under GGCAGAGCUCAAUACAGCGUGGCAAAGUGGCUGUCGCUAGACGACC [C13U G35C U43G G44A] stands 0.02; under GGCAGAGCUCAAUACAGCGUGUCAAAGUGGCUGUGGUUAGUCUGCC [C13U G22U C37U A41U], 0.13; under GGCAGAGCUCAAUACAGCGUCUCAAAGUGGCUGUGGCUAGACUGCC [C13U G21C G22U], 0.29.
Under GGCAGAGCUCAAUACAGCGUGGCAAAGUGACUAGGGCUAGACUGCC [C13U G30A G33A U34G] stands 0.04.
Under GGCAGAGCUCAAUACAGCGUGACAAAGUGGCUGUGGCUAGGCUGAC [C13U G22A A41G C45A] stands 0.13; under GGCAGAGCUCAAUACAGCGUGACCAAGUGGAUGUGGCAGGACUGCC [C13U G22A A24C C31A U38A A39G], 0.11.
Take GGCAGAGCUCAAUACAGCGUGUCAAAGUGGUUGUGGCUACACUGCC [C13U G22U C31U G40C]: the self-cleavage amounted to 0.12.
Under GGCAGAGCUCAAUACAGCGUGGCAAAGUGCCUGUGGCUAGACUGAC [C13U G30C C45A] stands 0.06; under GGCAGAGCUCAAUACAGCGAGGCACUGUUGCUGUGGCUAGACUGCC [C13U U20A A25C A26U G29U], 0.04; under GGCAGAGCUCAAUACAGCGUGGCAAAGUAGCUGUGGCUAGACUGCA [C13U G29A C46A], 0.08.
Regarding GGCAGAGCUCAAUACAGCGUGGCAAAGUGGCUAUUGCUAGACUGCC [C13U G33A G35U], the self-cleavage amounted to 0.04.
As for GGCAGAGCUCAAUACAGCGAUGCAAAGUGGCUGUGGCUAAACUGGC [C13U U20A G21U G40A C45G], the self-cleavage turned out to be 0.03.
For GGCAGAGCUCAAUACAGCGUGCCAAACUGACUGUGGCUAGACUGCC [C13U G22C G27C G30A] the value was 0.03.
For GGCAGAGCUCAAUACAGCGUGGCAAAGUGGCUUUGGCUAGACUGCA [C13U G33U C46A] the value was 0.12; for GGCAGAGCUCAAUACAGCGUGCCAAAGUGGCGGUGGCUAGACUGCC [C13U G22C U32G], 0.03.
